# Measured values reported in publication PMC8605023 (2021).
# B1: FERM domain of Ezrin (domain or fragment)
# chain: not shown
# Columns and labels:
# Assay in all cases: FP
# [1] = biological target: SARS-CoV NSP3 2019-2038
# [2] = biological target: SARS-CoV-2 E 1-16
# [3] = biological target: SARS-CoV-2 NSP3 2019-2038
# [4] = biological target: SARS-CoV E 1-16
binder,measurement,setting,value
B1,Kd,[1],56 µM
same,Kd,[2],57.9 µM
same,Kd,[3],19.8 µM
same,Kd,[4],57.9 µM
